# Assay results: PubChem BioAssay AID1745853 (National Center for Advancing Translational Sciences (NCATS), 2022)
# Several values for one entry are separate records, joined by “and”; a condition that tells them apart may be missing. Equal values may be shown once. Some of the results follow. Shown are side measurements of this screen, not its main read-out; they come without a call.
# Assays:
# Assay in all cases: Primary Screen for Target Class Profiling of Small Molecule Inhibitors of Methyltransferases
# [1] = target: Glycine N-methyltransferase (Homo sapiens) (UniProt Q14749); conditions: purified enzyme, MTase-Glo SAH luminescence; measured here: GNMT inhibition; at 40 µM; stronger effect = lower value
# Outline: (§1)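 Each enzyme was assayed with SAM and its substrate. SAH formation detected by MTase-Glo luminescence; single-point 40 uM screen[…].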
# [2] = target: Guanidinoacetate N-methyltransferase (Homo sapiens) (UniProt Q14353); conditions: purified enzyme, MTase-Glo SAH luminescence; measured here: GAMT inhibition; at 40 µM; stronger effect = lower value
# Outline: as §1
# [3] = target: Histamine N-methyltransferase (Homo sapiens) (UniProt P50135); conditions: purified enzyme, MTase-Glo SAH luminescence; measured here: HNMT inhibition; at 40 µM; stronger effect = lower value
# Outline: as §1
# [4] = target: Nicotinamide N-methyltransferase (Homo sapiens) (UniProt P40261); conditions: purified enzyme, MTase-Glo SAH luminescence; measured here: NNMT inhibition; at 40 µM; stronger effect = lower value
# Outline: as §1
# [5] = target: Phenylethanolamine N-methyltransferase (Homo sapiens) (UniProt P11086); conditions: purified enzyme, MTase-Glo SAH luminescence; measured here: PNMT inhibition; at 40 µM; stronger effect = lower value
# Outline: as §1
# % is set by controls: 0 for no effect and ±100 for the full control effect.
SMILES,"activity change, negative = inhibition [1]","activity change, negative = inhibition [2]","activity change, negative = inhibition [3]","activity change, negative = inhibition [4]","activity change, negative = inhibition [5]"
CN(c1ccccc1)c1cc(=O)c2ccnc(-c3ccc(CO)cc3)c2o1,-34.8%,-26.1%,-42.2%,-38.1%,-28%
Oc1cccc(Nc2ccnc3cc(-c4cccc(CN5CCOCC5)c4)sc23)c1,,4.8%,,-42.9%,-20.1%
CCCC1c2cccn2CCN1C(=O)Nc1cccc(OC)c1 (stereo not given),4.21%,4.07%,-10%,2.07%,9.62%
N[C@H]1CN(c2c(F)cc3c(=O)c(C(=O)O)cn(C4C[C@@H]4F)c3c2Cl)CC12CC2 (stereo not given in full),3.71%,9.26%,-8.72%,-14.5%,-4.03%
CCCNCCOc1ccc(NC(=O)c2c[nH]c3c2C(=O)CCC3)cc1F,-1.93%,4.92%,-10.6%,-16.2%,-2.18%
CCc1ccc(-c2cc3n(n2)CC(C)(C(=O)NC2CCCCC2)N(c2ccc(OC)cc2)C3=O)cc1 (stereo not given),4.02%,4.32%,6.56%,0.986%,-0.394%
CCOCCCNC(=O)C1c2c(n(C)c3ccccc23)SCC(=O)N1Cc1cccnc1 (stereo not given),9.22%,0.163%,5.4%,3.24%,6.99%
Cc1ccc(NC(=O)CSc2nnc3n(C)c(=O)c4ccc(C(=O)NC5CCCCC5)cc4n23)cc1,-0.967%,0%,-5.1%,0.644%,4.72%
CC(=O)OC[C@@]12[C@H](O)C[C@]3(C)C(=CCC4[C@@]5(C)CC[C@H](O[C@@H]6O[C@H](C(=O)O)[C@@H](O[C@@H]7O[C@H](CO)[C@@H](O)[C@H](O)[C@H]7O)[C@H](O)[C@H]6O[C@@H]6O[C@H](CO)[C@@H](O)[C@H](O)[C@H]6O)[C@](C)(CO)C5CC[C@]43C)[C@@H]1CC(C)(C)[C@@H](OC(C)=O)[C@@H]2O (stereo not given in full),0%,5.92%,3.54%,-5.17%,8.72%
CCCc1cc(C(=O)N2CCC(=O)N(CC3CC3)C(C(C)C)C2)cs1 (stereo not given),-2.21%,0.412%,1.86%,-6.49%,-1.47%
CCOC(=O)c1cnc2ccc(-c3cncc(NS(=O)(=O)c4ccccc4)c3)cn12,-58.7%,-30.3% and -63%,-54.6%,-40.6% and -69.5%,-45.4% and -52.2%
CC(=O)Oc1cc2c(s1)CCN([C@H](C(=O)C1CC1)c1ccccc1F)C2,-0.066%,,6.8%,,
COc1ccc(CC2(CO)CCN(c3cc(OC)nc(N)n3)CC2)cc1,-9.16%,-8.12%,-16.5%,-16.4%,-19.5%
O=C(C1CCCC1)N1CC2(CCCN(Cc3ccccn3)C2)Cc2ccccc21 (stereo not given),-9.63%,-12.7%,-11.3%,-26.7%,-13.7%
Cc1cc(C)cc(NC(=O)CCc2nnc3n(Cc4ccc(F)cc4)c(=O)c4ccccc4n23)c1,-1.44%,3.49%,1.73%,-2%,-2.83%
COc1cc(C(=O)N2CCC(N3CCN(C)CC3)CC2)ccc1Nc1ncc2c(n1)N(C)c1ccccc1C(=O)N2C,-12.5%,-1.85%,-22%,-29.4%,0.215%
CS(=O)(=O)c1ccc(CC(=O)N[C@H](c2ccccn2)C2CC(O)C2)cc1 (stereo not given in full),-0.845%,-2.52%,-1.01%,0.19%,4.76%
COc1cc(N2CCC(O)CC2)ccc1Nc1cc(Nc2ccccc2S(=O)(=O)C(C)C)c2cc[nH]c2n1,-15%,2.9%,-64.2%,-17.8%,-6.51%
CC1(C(=O)NC2CCCC2)Cn2c(nc3ccccc32)C(=O)N1Cc1ccc(F)cc1 (stereo not given),-2.12%,-1.24%,1.8%,0%,0.367%
CC1(C(=O)NC2CCCC2)Cn2c(ccc2-c2ccco2)C(=O)N1Cc1cccc(Cl)c1 (stereo not given),-3.71%,4.26%,3.52%,-2.96%,-0.36%
COCCOc1ncccc1-c1noc([C@@H]2CCCN2Cc2ccc(OC)cc2O)n1,-5.07%,-1.72%,-1.26%,-9.52%,-15.1%
CCOc1ccc(CN2C(=O)c3cc4ccccc4n3CC2(C)C(=O)NCCC(C)C)cc1 (stereo not given),7.94%,3.65%,7.59%,8.43%,0.193%
COc1cccc(CN2C(=O)c3nc4ccccc4n3CC2(C)C(=O)NCc2ccccc2)c1 (stereo not given),-6.46%,6.02%,-4.63%,-5.87%,-1.04%
C=C1C(=O)OC2/C=C(\COC(C)=O)CC/C=C(\C=O)CC(OC(=O)CC(C)C)C12 (stereo not given),0%,9.37%,7.92%,-3.39%,7.26%
COC(=O)c1ncn2c1C(=O)N(c1ccc(C)cc1C)C(C)(C(=O)NC1CCCC1)C2 (stereo not given),-4.19%,-0.604%,-8.7%,-2.21%,-3.62%
CN1CCC(N[C@@H]2CCC[C@@H](C(=O)NC3CC3)CC(=O)N(C)C2)CC1,-5.22%,-8.35%,-4.69%,-10.8%,-9.3%
COc1ccc(N2C(=O)CSc3c(c4ccccc4n3C)C2C(=O)NCc2ccccc2)cc1OC (stereo not given),3.58%,0%,8.14%,1.18%,1.1%
